# Results taken from the supplement of paper PMC8728848.
# The list shows a part of the results.
# B1: a L Fucosidase (Streptosporangium roseum), D2B1P1_STRRD (protein)
# chain: MRRKLLLVPAVGLLVIGSIFATQPVASADTPPVYEPTVESLNSHPVPQWFNDDKFGIFIHWGAYSVPAWGPRGSYAEWYGNYMNAGGSATNAHHKATYGQDFNYDAFLQQWKAEKFDPADWVKLFKDAGAKYFVLTSKHHEGMALWDSKSSGRDSVDLGPGRDLAKELFDAARKDEAKLKAGFYYSLYEWYNPAYTGRPATNPYTGAEIPYTGAPGGGDYVKDYMLPQMRELIDGYDPDIIWCDGQWEKPASYWNTAGVIADYYNKALNSGKEVAVANRCKIQSGNLDSPELDFQTPEYTVKPDIDPVKWESSRGIAHSYGYNQNEPEEDHLTSDQLVDSLVDIVSKNGNLLLDIGPKADGTIPEIQRQRLLDIGAWLKANGEAIYGTTYWNRAEEKGGPDDVRYTAKDATLYATALKWPGEQLTLGADLPVDHSTRITMLGSGARLSWSRDEQGRVVVNTPQEAGKHAYVFKIETPGVRSLLRTSSSLAKEIAPGRTISGELTVTNPGKRHTPATKLSLTVPQGWTATLGAPRVRPLGPGESVKVPISVSAPEGVAPAPYTLGLYQRTGRMGTTTALPLTVNRPNLSLGKPATQKSTGYDAPASRAVDGNTGGDWSAGSTTHTAEPEKQAWWQVDLGASARLDSVDVWNRLDCCADRLKDFWVMASDQPFTTDDLDQARTAPGVTAVHVGEQAGSPSKVKLPEGTRGRYVRIQLASPSNPLSLAEVQVRGSMARPNLSLGKPATQKSTGYDAPASRAVDGNTGGDWSAGSTTHTAEPEKQAWWQVDLGASARLDSVDVWNRLDCCADRLKDFWVMASDQPFTTDDLDQARTAPGVTAVHVGEQAGSPSKVKLPEGTRGRYVRIQLASPSNPLSLAEVQVRLEHHHHHHS
# Columns and labels:
# Test in all cases: glycan array binding signal (z-score within array); higher = stronger binding
# Conditions in all cases: glycan notation: IUPAC condensed, linker removed
# [1] = target: Gal3S(b1-3)[Fuc(a1-4)]GlcNAc
# Procedure, shortened: (§1)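 Columns mapping to the same glycan were averaged after glycan names were converted to IUPAC-condensed notation. The data come from 3228 arrays in the Consortium for Functional Glycomics database, limited to those with an available protein sequence. Binding is reported as a within-array Z-score averaged across arrays of one protein sequence and across linkers.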
# Gal3S(b1-4)Glc = target: Gal3S(b1-4)Glc
# Procedure, shortened: as §1
# Gal3S(b1-4)Glc6S = target: Gal3S(b1-4)Glc6S
# Procedure, shortened: as §1
# Gal3S(b1-4)GlcNAc = target: Gal3S(b1-4)GlcNAc
# Procedure, shortened: as §1
# [2] = target: Gal3S(b1-4)[Fuc(a1-3)]Glc6S
# Procedure, shortened: as §1
# [3] = target: Gal3S(b1-4)[Fuc(a1-3)]GlcNAc
# Procedure, shortened: as §1
# [4] = target: Gal3S(b1-4)[Fuc(a1-3)]GlcNAc6S
# Procedure, shortened: as §1
# Gal3S4S(b1-4)GlcNAc = target: Gal3S4S(b1-4)GlcNAc
# Procedure, shortened: as §1
# Gal3S6S(b1-4)GlcNAc = target: Gal3S6S(b1-4)GlcNAc
# Procedure, shortened: as §1
# Gal3S6S(b1-4)GlcNAc6S = target: Gal3S6S(b1-4)GlcNAc6S
# Procedure, shortened: as §1
# Gal4S(b1-4)GlcNAc = target: Gal4S(b1-4)GlcNAc
# Procedure, shortened: as §1
# Gal4S6S(b1-4)GlcNAc = target: Gal4S6S(b1-4)GlcNAc
# Procedure, shortened: as §1
# Gal6P(b1-4)GlcNAc = target: Gal6P(b1-4)GlcNAc
# Procedure, shortened: as §1
# Gal6S(b1-3)GlcNAc = target: Gal6S(b1-3)GlcNAc
# Procedure, shortened: as §1
# Gal6S(b1-3)GlcNAc6S = target: Gal6S(b1-3)GlcNAc6S
# Procedure, shortened: as §1
# Gal6S(b1-4)Glc = target: Gal6S(b1-4)Glc
# Procedure, shortened: as §1
# Gal6S(b1-4)Glc6S = target: Gal6S(b1-4)Glc6S
# Procedure, shortened: as §1
# Gal6S(b1-4)GlcNAc = target: Gal6S(b1-4)GlcNAc
# Procedure, shortened: as §1
# Gal6S(b1-4)GlcNAc6S = target: Gal6S(b1-4)GlcNAc6S
# Procedure, shortened: as §1
# GalNAc(a1-3)Gal = target: GalNAc(a1-3)Gal
# Procedure, shortened: as §1
# GalNAc(a1-3)GalNAc = target: GalNAc(a1-3)GalNAc
# Procedure, shortened: as §1
# [5] = target: GalNAc(a1-3)GalNAc(b1-3)Gal(a1-4)Gal(b1-4)Glc
# Procedure, shortened: as §1
# [6] = target: GalNAc(a1-3)GalNAc(b1-3)Gal(a1-4)Gal(b1-4)GlcNAc
# Procedure, shortened: as §1
# GalNAc(b1-3)Gal = target: GalNAc(b1-3)Gal
# Procedure, shortened: as §1
# [7] = target: GalNAc(b1-3)Gal(a1-4)Gal(b1-4)GlcNAc
# Procedure, shortened: as §1
# [8] = target: GalNAc(b1-3)Gal(a1-4)Gal(b1-4)GlcNAc(b1-3)Gal(b1-4)Glc
# Procedure, shortened: as §1
# [9] = target: GalNAc(b1-3)Gal(a1-6)Gal(b1-4)Glc
# Procedure, shortened: as §1
# GalNAc(b1-3)GalNAc = target: GalNAc(b1-3)GalNAc
# Procedure, shortened: as §1
# GalNAc(b1-3)GlcNAc = target: GalNAc(b1-3)GlcNAc
# Procedure, shortened: as §1
# GalNAc(b1-4)Gal(b1-4)Glc = target: GalNAc(b1-4)Gal(b1-4)Glc
# Procedure, shortened: as §1
binder,measurement,setting,value
B1,glycan array binding signal (z-score),[1],-0.548
same,glycan array binding signal (z-score),Gal3S(b1-4)Glc,-0.52
same,glycan array binding signal (z-score),Gal3S(b1-4)Glc6S,0.013
same,glycan array binding signal (z-score),Gal3S(b1-4)GlcNAc,-0.465
same,glycan array binding signal (z-score),[2],-0.086
same,glycan array binding signal (z-score),[3],-0.419
same,glycan array binding signal (z-score),[4],0.329
same,glycan array binding signal (z-score),Gal3S4S(b1-4)GlcNAc,-0.487
same,glycan array binding signal (z-score),Gal3S6S(b1-4)GlcNAc,-0.372
same,glycan array binding signal (z-score),Gal3S6S(b1-4)GlcNAc6S,0.084
same,glycan array binding signal (z-score),Gal4S(b1-4)GlcNAc,-0.485
same,glycan array binding signal (z-score),Gal4S6S(b1-4)GlcNAc,-0.147
same,glycan array binding signal (z-score),Gal6P(b1-4)GlcNAc,-0.076
same,glycan array binding signal (z-score),Gal6S(b1-3)GlcNAc,-0.58
same,glycan array binding signal (z-score),Gal6S(b1-3)GlcNAc6S,0.487
same,glycan array binding signal (z-score),Gal6S(b1-4)Glc,-0.356
same,glycan array binding signal (z-score),Gal6S(b1-4)Glc6S,0.016
same,glycan array binding signal (z-score),Gal6S(b1-4)GlcNAc,-0.516
same,glycan array binding signal (z-score),Gal6S(b1-4)GlcNAc6S,-0.332
same,glycan array binding signal (z-score),GalNAc(a1-3)Gal,-0.595
same,glycan array binding signal (z-score),GalNAc(a1-3)GalNAc,-0.483
same,glycan array binding signal (z-score),[5],-0.338
same,glycan array binding signal (z-score),[6],0.393
same,glycan array binding signal (z-score),GalNAc(b1-3)Gal,-0.257
same,glycan array binding signal (z-score),[7],-0.428
same,glycan array binding signal (z-score),[8],-0.404
same,glycan array binding signal (z-score),[9],-0.451
same,glycan array binding signal (z-score),GalNAc(b1-3)GalNAc,-0.634
same,glycan array binding signal (z-score),GalNAc(b1-3)GlcNAc,-0.481
same,glycan array binding signal (z-score),GalNAc(b1-4)Gal(b1-4)Glc,0.011
